Measured values reported in PubChem BioAssay AID504333 (National Center for Advancing Translational Sciences (NCATS), 2011).
The campaign covered roughly 360,000 compounds. About 16,000 (4.4%) were called active. Inconclusive means that the source gave no clear call. Such entries were picked first, then a sample of the others. The call rests on the fitted dose curve; in most records, active means well fitted inhibition curve with a large enough effect; inconclusive means small, poorly fitted or top-dose-only effect; inactive means no such curve, though single readings can be large or run the other way. Potencies beside an inconclusive call are fits to weak or partial responses and may not hold up.

target: Bromodomain adjacent to zinc finger domain protein 2B (Homo sapiens) (UniProt Q9UIF8); assay: qHTS Assay for Inhibitors of BAZ2B; conditions: AlphaScreen BAZ2B-H3K14Ac peptide displacement; activity change, negative = inhibition: at 114 µM (top of the series) unless noted; further: nearly all actives have a fitted effect of over 60% in size
In short: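 In this displacement format the biotinylated H3(5-23) peptide acetylated at Lys14 serves as ligand at 50 nM, with BAZ2B at 50 nM in PBS pH 7.4 containing 0.01% Tween-20. Donor and acceptor beads are 10 ug/mL final.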
On the % scale 0 is the no-effect control and ±100 the full control effect; potency means the concentration at half of the fitted maximal effect; tags describe the fitted curve by direction and shape.

UniProt Q9UIF8, sequence (Q9UIF8 whole entry, looked up, the tested form may be a part): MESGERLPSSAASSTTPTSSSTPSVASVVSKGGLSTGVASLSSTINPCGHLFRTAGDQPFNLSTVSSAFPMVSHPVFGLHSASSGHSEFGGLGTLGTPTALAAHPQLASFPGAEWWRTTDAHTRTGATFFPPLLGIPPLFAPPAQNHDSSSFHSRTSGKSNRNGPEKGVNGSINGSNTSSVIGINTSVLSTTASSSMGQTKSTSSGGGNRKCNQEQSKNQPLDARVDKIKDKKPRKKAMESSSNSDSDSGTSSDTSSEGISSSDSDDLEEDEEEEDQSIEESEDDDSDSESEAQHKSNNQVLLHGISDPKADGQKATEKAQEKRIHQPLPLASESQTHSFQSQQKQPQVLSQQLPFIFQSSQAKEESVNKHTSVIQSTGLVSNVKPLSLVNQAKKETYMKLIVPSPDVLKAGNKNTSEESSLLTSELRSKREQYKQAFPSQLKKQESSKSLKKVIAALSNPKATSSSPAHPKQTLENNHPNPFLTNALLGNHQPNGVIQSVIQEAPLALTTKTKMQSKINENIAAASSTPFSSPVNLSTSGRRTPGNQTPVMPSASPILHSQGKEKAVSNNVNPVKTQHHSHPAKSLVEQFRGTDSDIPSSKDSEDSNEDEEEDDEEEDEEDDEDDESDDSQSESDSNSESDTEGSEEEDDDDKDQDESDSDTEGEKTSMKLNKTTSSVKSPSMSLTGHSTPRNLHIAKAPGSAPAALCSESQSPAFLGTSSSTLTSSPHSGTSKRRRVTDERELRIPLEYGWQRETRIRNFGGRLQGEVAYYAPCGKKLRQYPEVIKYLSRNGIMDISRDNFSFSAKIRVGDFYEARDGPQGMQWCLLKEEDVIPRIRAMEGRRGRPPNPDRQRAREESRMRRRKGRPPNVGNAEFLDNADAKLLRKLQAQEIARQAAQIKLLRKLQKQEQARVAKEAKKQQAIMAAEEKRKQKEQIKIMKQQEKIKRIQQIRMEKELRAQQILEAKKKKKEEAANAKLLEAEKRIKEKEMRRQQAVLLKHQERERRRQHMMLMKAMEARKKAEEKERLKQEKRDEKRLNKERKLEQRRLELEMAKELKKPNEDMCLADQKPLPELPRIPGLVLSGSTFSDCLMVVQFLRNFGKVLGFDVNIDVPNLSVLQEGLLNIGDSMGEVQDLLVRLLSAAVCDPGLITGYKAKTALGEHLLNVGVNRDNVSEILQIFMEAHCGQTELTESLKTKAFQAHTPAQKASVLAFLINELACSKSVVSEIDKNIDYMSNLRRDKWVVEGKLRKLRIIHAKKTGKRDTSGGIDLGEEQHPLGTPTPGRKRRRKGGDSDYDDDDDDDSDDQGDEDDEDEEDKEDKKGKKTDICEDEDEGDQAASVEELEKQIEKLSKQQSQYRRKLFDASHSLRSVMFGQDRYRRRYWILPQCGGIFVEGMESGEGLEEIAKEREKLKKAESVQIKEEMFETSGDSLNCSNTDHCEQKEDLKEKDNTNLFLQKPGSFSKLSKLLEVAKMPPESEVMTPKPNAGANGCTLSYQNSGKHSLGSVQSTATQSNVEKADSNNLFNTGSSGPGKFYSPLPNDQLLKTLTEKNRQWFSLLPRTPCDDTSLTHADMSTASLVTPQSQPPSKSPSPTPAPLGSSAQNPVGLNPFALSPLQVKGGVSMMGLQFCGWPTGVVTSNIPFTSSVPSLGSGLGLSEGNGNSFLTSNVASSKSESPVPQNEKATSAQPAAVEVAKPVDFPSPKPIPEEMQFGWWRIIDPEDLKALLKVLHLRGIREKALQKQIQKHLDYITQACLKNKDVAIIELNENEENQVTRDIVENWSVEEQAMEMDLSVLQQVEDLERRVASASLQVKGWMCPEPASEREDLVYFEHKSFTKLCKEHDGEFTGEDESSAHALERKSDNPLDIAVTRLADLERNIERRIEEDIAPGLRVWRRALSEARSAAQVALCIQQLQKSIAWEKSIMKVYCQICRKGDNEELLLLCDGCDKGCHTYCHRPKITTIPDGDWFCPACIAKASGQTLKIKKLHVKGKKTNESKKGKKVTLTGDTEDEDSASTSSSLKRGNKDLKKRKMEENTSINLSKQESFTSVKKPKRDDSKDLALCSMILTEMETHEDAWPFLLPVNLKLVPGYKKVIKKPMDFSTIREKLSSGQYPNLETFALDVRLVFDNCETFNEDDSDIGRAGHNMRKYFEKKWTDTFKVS

SMILES	activity change, negative = inhibition	Potency
CCSc1nc(-c2ccco2)ccc1C#N	inactive: 0.737%	–
CCOC(=O)c1c(C)[nH]c(C)c1S(=O)(=O)N1CCCC(C(=O)N2CCN(c3cccc(C)c3C)CC2)C1 (stereo unspecified)	–	inconclusive: 70.8 µM [inhibitor, single point]
O=C(CNCc1ccc(F)cc1)Nc1ccccc1[N+](=O)[O-]	–	inconclusive: 50.1 µM [inhibitor, partial curve]
COc1ccc(N2C(S)=C(C#N)C(=O)NC23CCCCC3)cc1	–	inconclusive: 89.1 µM [inhibitor, single point]
Cc1nn(C)cc1C(=O)/C=C/c1ccc([N+](=O)[O-])cc1	inactive: -19.4%	–
COc1ccc(-n2nc3c(c2NC(=O)COc2cccc(OC)c2)CS(=O)(=O)C3)cc1	–	inconclusive: 79.4 µM [inhibitor, single point]
CC(=O)Nc1ccc2c(c1)C(=O)N(c1ccc(C)cc1)C2=O	–	inconclusive: 5.01 µM [inhibitor, full curve, poor fit]
C/C(=N\Nc1ccc(Cl)c(C(=O)O)c1)c1ccc[nH]1	–	inconclusive: 50.1 µM [inhibitor, partial curve]
COc1cc(C2c3sc(=O)[nH]c3SC3C4CCC(C4)C23)ccc1O (stereo unspecified)	–	inconclusive: 44.7 µM [inhibitor, partial curve]
Cc1ccc(N2CCOCC2)c2c1C(=O)c1ccccc1C2=O	–	active: 14.1 µM
CCCC(CCC(=O)Nc1ccc(C(=O)OCC)cc1)C(=O)O (stereo unspecified)	inactive: 0.656%	–
COc1ccc(CC(=O)Nc2c(C(=O)N3CCN(c4ccccc4OC)CC3)oc3ccccc23)cc1OC	–	inconclusive: 39.8 µM [inhibitor, partial curve]
O=C(Nc1ccc2oc(-c3ccncc3)nc2c1)c1cccs1	–	active: 56.2 µM
Cc1ccc(-c2[nH]c(-c3ccc(C(=O)O)cc3)nc2-c2ccccc2)cc1	–	inconclusive: 50.1 µM [inhibitor, partial curve]
Cc1ccc2c(c1)C1CCCC3C1N2CC(=O)N3Cc1ccccc1 (stereo unspecified)	–	inconclusive: 44.7 µM [inhibitor, partial curve, poor fit]
CC(=O)CSc1nnc2[nH]c(=O)cc(N)n12	inactive: 2.82%	–
COc1ccc(S(=O)(=O)NCCc2csc(-c3ccc(F)cc3)n2)cc1F	inactive: 4.46%	–
CCOC(=O)N1CCN(C(=O)c2cc(-c3ccc(F)cc3)[nH]c2C)CC1	–	inconclusive: 79.4 µM [inhibitor, single point]
O=C(c1nc2nc(-c3ccc(Cl)cc3)cc(C(F)(F)F)n2n1)N1CCOCC1	–	inconclusive: 89.1 µM [inhibitor, single point]
Cc1ccc(/C=C(/NC(=O)c2ccccc2)C(=O)NCCc2c[nH]c3ccccc23)o1	–	inconclusive: 79.4 µM [inhibitor, single point]
Cc1ccc(-n2ncc(C(=O)NCc3ccco3)c2C2CCN(C(=O)OC(C)(C)C)CC2)c(C)c1	inactive: -1.41% [at 57.1 µM]	–
Cc1ccccc1N1C(S)=C(C#N)C(=O)NC1c1cccs1 (stereo unspecified)	–	inconclusive: 89.1 µM [inhibitor, single point]
CCN1C(=O)/C(=C\C(=O)c2cccs2)c2cc(Br)ccc21	–	active: 15.8 µM

SMILES	activity change, negative = inhibition	Potency
CCOc1ncccc1C(=O)OCC(=O)Nc1ccc2c(c1)OCO2	inactive: -9.99%	–
CC(C)(C)OC(=O)NCCC(=O)N/N=C/c1cccc2cccnc12	–	inconclusive: 89.1 µM [inhibitor, single point]
COC(=O)c1c(NC(=O)CCCOc2cccc(C)c2)sc2c1C(C(=O)OC)CC2 (stereo unspecified)	–	active: 35.5 µM
Cn1cnnc1Sc1ccc(/C=C(\CCC(=O)O)c2nc3ccccc3s2)cc1[N+](=O)[O-]	–	inconclusive: 79.4 µM [inhibitor, single point]
CCN(CC)c1ccc(NC(=O)CN2CCN(CC(=O)Nc3ccc(F)cc3)CC2)cc1	–	inconclusive: 50.1 µM [inhibitor, partial curve]
CCc1cccc(C)c1NC(=S)NCc1ccc2c(c1)cc(C)n2C	–	active: 25.1 µM
Cc1cc(N2CCN(c3ccccc3)CC2)nc2ccccc12	inactive: 11.4%	–
CC1=Nc2ccccc2/C1=C/c1sc(=S)n(-c2cccc(C(=O)O)c2)c1O	–	inconclusive: 39.8 µM [inhibitor, partial curve]
CC(C)c1ccc(O)c(NC(=O)c2ncn[nH]2)c1	–	inconclusive: 89.1 µM [inhibitor, single point]
CC(C)(C)C(CCl)C(=O)NN=C(c1ccccc1)c1ccccc1 (stereo unspecified)	–	inconclusive: 89.1 µM [inhibitor, single point]
COc1cc(OC)c(Nc2nc3ccc(C(=O)c4ccccc4)cc3n3c(C)nnc23)cc1Cl	inactive: -0.627%	–
CCCCn1cc2c(c1-c1ccc(Cl)cc1)c(=O)n(C)c(=O)n2C	–	inconclusive: 2.82 µM [inhibitor, full curve, poor fit]
O=C(NCCCn1ccnc1)C(=O)NCC(c1cccnc1)N1CCN(c2ccc(F)cc2)CC1 (stereo unspecified)	–	active: 50.1 µM
COc1cc(C2Oc3ccccc3C=C2[N+](=O)[O-])cc(OC)c1OC (stereo unspecified)	–	active: 35.5 µM
Cc1cc(Cl)ccc1OCc1n[nH]c(=S)n1C1CCCCC1	–	inconclusive: 89.1 µM [inhibitor, single point]
C=CCNC(=O)C1CC2Cn3c(nc4ccccc43)C2N1C (stereo unspecified)	inactive: -2.54%	–
O=C(Cc1coc2ccc3ccccc3c12)N1CCCC1	inactive: -25%	–
COc1ccc(C(=O)/C=C/c2ccc(OC3CSC3)cc2)cc1OC	–	inconclusive: 79.4 µM [inhibitor, single point]
COc1cc(/C=C2\C(=N)N3N=C(S(C)(=O)=O)SC3=NC2=O)ccc1OS(=O)(=O)c1ccccc1	–	active: 50.1 µM
COc1cc(OC)c(OC)cc1/C=C1\CCC/C(=C\c2cc(OC)c(OC)cc2OC)C1=O	–	active: 28.2 µM
O=S(=O)(c1ccc(F)cc1)N1CCN(C(=S)NCc2ccco2)CC1	–	inconclusive: 89.1 µM [inhibitor, single point]
COC(=O)C1=C(C)N(C)C(=O)/C1=C\c1ccco1	–	inconclusive: 79.4 µM [inhibitor, single point]
c1ccc2c(CSc3nnc(-c4ccncc4)o3)cccc2c1	inactive: 3.81%	–
